The record followed here is the supplement of paper PMC10126150.

The test system of this data set is ATP. Description: switch fluorescence ratio, 500 uM ATP over buffer (Cy3 cluster intensity, sum of 5 cycles each) (fold (ratio)); higher = stronger signal-on switching upon ATP binding; sequences stand for … in TCGTCGGCAGCGTCAGATGTGTATAAGAGACAGTTTTTTTTTTTTTTTTTTTTTTTTT…TC. The conditions noted are these: aptamer strand: ATP DNA aptamer (quencher-CACCTGGGGGAGTATTGCGGAGGAAGG + anchor), 100 nM annealed; ATP concentration: 500 uM; one replicate. The method in brief: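 Five buffer/ATP imaging cycles were run on Cy3-labelled switching-strand clusters on a modified Illumina MiSeq flow-cell, with NaOH stripping and re-annealing between cycles. In each cycle, clusters annealed to 100 nM quencher-labelled ATP aptamer were imaged in selection buffer, then after 15 min with 500 uM ATP at 22 °C. Per cluster, the fluorescence ratio is summed target-cycle over summed buffer-cycle Cy3 intensity, averaged per switch-domain sequence. Only clusters within 100-1000 RFU were kept.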

Sequences with one replicate were seen in a single cluster, so their values are uncertain.
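Also: ATP exposure 15 min at 22 °C before imaging.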

GATTAACCCT: the switch fluorescence ratio is 1.08.
As to TGACAAGCGC, the switch fluorescence ratio amounted to 0.981.
For the sequence CGTAGACTCC, the switch fluorescence ratio was 2.07.
Next, AGGCGTACTA: 1.04.
Next, TAGCTTTGTG: 1.02; ATAAAGCTT: 0.989; TACTAGTTTA: 0.957.
Turning to GCGGCAAAAC, the switch fluorescence ratio was 1.07.
Next, TAGAGTGAC: 1; CCTTGTAGGA: 0.943; TTACGGGATA: 1.06.
Consider TGCTCCTTT, for which the switch fluorescence ratio was determined as 0.997.
Regarding CAGACGCAGA, the switch fluorescence ratio stood at 3.95.
TTCTAGCGCT: the switch fluorescence ratio came to 0.98.
Next, AGGTGCTTCT: 0.98.
For the sequence CGCTAGACAG, the switch fluorescence ratio is 1.05.
In the case of GACAGC it was 1.31; in that of AAATTATGAT, 1.05.
In the case of ACAGCCCACG it was 1.28; in that of GCTCGGGACA, 1.02.
On to GCCAATCTCG, for which the switch fluorescence ratio came to 1.08.
Consider ATAGGAGAG, for which the switch fluorescence ratio was found to be 1.
In the case of CGGGAAACGT it was 1.07; in that of TAGCTATTAT, 1.04; in that of GAGCAGACTT, 1.1.
As to ATAGTGGTTC, the switch fluorescence ratio stood at 0.943.
In the case of CACATTCCA it was 1.07.
In the case of GCGCTGAGGC it was 0.913; in that of ATTCCCGTCG, 1.
In the case of CCCACTTCAT, the switch fluorescence ratio was found to be 1.08.
With CCTGGAGTCG, the switch fluorescence ratio was 0.974.
Take ATCCTCGACG: the switch fluorescence ratio came out at 1.07.
Next, ATCTTCATAG: 0.986.
In the case of TCTGTGTGTG it was 1.01; in that of TGTGAGAATC, 1.03.
Next, ATAAATACTG: 1.43; CATTTAGGGT: 0.968.
Regarding TGCGAACCG, the switch fluorescence ratio turned out to be 0.983.
As for TGATGTGGG, the switch fluorescence ratio came to 0.956.
Next, GATTGAGTAC: 1.06.
For the sequence CGTAGCTGTA, the switch fluorescence ratio came out at 1.11.
Consider CTTGTCTTCT, for which the switch fluorescence ratio worked out at 1.
As for CGGTTAATAG, the switch fluorescence ratio worked out at 1.08.
For TCAACGCCA, the switch fluorescence ratio worked out at 1.5.
TGAGTCGGGT: the switch fluorescence ratio came out at 1.01.
Take GTTTGATCAT: the switch fluorescence ratio came out at 0.934.
With ATTAATAACA, the switch fluorescence ratio was determined as 0.986.
Regarding TGGAAAAAT, the switch fluorescence ratio came out at 1.02.
For GATGAGTGGG, the switch fluorescence ratio was 0.969.
In the case of ATGATCGGGG it was 0.967; in that of AGATAGGCGC, 1.03.
Consider TCATAATATT, for which the switch fluorescence ratio turned out to be 0.989.
ATGCCGACGC: the switch fluorescence ratio worked out at 1.18.
Next, CTGTAGAATA: 1.08.
Consider TTTGGTCATG, for which the switch fluorescence ratio amounted to 1.
In the case of GTTACTGT it was 1.04; in that of GTTTACGGCT, 1.08.
CGTATAAAGC: the switch fluorescence ratio worked out at 0.966.
On to CACAATGAGG, for which the switch fluorescence ratio was 0.981.
Regarding AAGCTTAGAT, the switch fluorescence ratio was found to be 0.98.
Consider GTTCTCAAGG, for which the switch fluorescence ratio was determined as 0.978.
Take GGGTTGGGC: the switch fluorescence ratio stood at 0.942.
As to TCGTCAAAT, the switch fluorescence ratio was found to be 0.996.
In the case of TTCAGGGACC it was 1; in that of GAGATACTTT, 1.
As for CGTGGGGCTA, the switch fluorescence ratio is 0.988.
For CTGGTTGCTA, the switch fluorescence ratio stood at 1.06.
Next, TTGACACGCG: 0.966; GGGATTTCGC: 0.988.
As for CCGAAATCCA, the switch fluorescence ratio came to 1.36.
In the case of GCAATTACGG it was 2.19.
In the case of TAGTCCTTGT it was 0.99; in that of TTCTGTGCAT, 1.28.
Take AGCTTTCGAA: the switch fluorescence ratio worked out at 1.03.
As for ATGGCCTGCT, the switch fluorescence ratio stood at 1.01.
As to TACCGCAGGG, the switch fluorescence ratio came to 0.987.
In the case of TTGGTGCTTA, the switch fluorescence ratio worked out at 1.08.
For AAACTCAGGC, the switch fluorescence ratio worked out at 1.18.
For CAATGTACTG, the switch fluorescence ratio was determined as 1.02.
